Where two headings read alike, the source gives them in different places.
Molecular target: Recombinant heterodimeric HCV NS3/NS4A protease (strain 1a) (Hepatitis C virus genotype 1a, UniProt P27958)
Assay: biochemical
Source text: Assay for HCV Protease Inhibitory Activity:
Spectrophotometric Assay: Spectrophotometric assay for the HCV serine protease can be performed on the inventive compounds by following the procedure described by R. Zhang et al, Analytical Biochemistry, 270 (1999) 268-275, the disclosure of which is incorporated herein by reference. The assay based on the proteolysis of chromogenic ester substrates is suitable for the continuous monitoring of HCV NS3 protease activity. The substrates are derived from the P side of the NS5A-NS5B junction sequence (Ac-DTEDWX(Nva), where X=A or P) whose C-terminal carboxyl groups are esterified with one of four different chromophoric alcohols (3- or 4-nitrophenol, 7-hydroxy-4-methyl-coumarin, or 4-phenylazophenol). […] Materials and Methods:
Materials: Chemical reagents for assay related buffers are obtained from Sigma Chemical Company (St. Louis, Mo.). Reagents for peptide synthesis were from Aldrich Chemicals, Novabiochem (San Diego, Calif.), Applied Biosystems (Foster City, Calif.) and Perseptive Biosystems (Framingham, Mass.). Peptides are synthesized manually or on an automated ABI model 431A synthesizer (from Applied Biosystems). UV/VIS Spectrometer model LAMBDA 12 was from Perkin Elmer (Norwalk, Conn.) and 96-well UV plates were obtained from Corning (Corning, N.Y.). The prewarming block can be from USA Scientific (Ocala, Fla.) and the 96-well plate vortexer is from Labline Instruments (Melrose Park, Ill.). A Spectramax Plus microtiter plate reader with monochrometer is obtained from Molecular Devices (Sunnyvale, Calif.).
Protein concentrations are determined by the Biorad dye method using recombinant HCV protease standards previously quantified by amino acid analysis. Prior to assay initiation, the enzyme storage buffer (50 mM sodium phosphate pH 8.0, 300 mM NaCl, 10% glycerol, 0.05% lauryl maltoside and 10 mM DTT) is exchanged for the assay buffer (25 mM MOPS pH 6.5, 300 mM NaCl, 10% glycerol, 0.05% lauryl maltoside, 5 μM EDTA and 5 μM DTT) utilizing a Biorad Bio-Spin P-6 prepacked column. Substrate Synthesis and Purification: The synthesis of the substrates is done as reported by R. Zhang et al, (ibid.) and is initiated by anchoring Fmoc-Nva-OH to 2-chlorotrityl chloride resin using a standard protocol (K. Barlos et al, Int. J. Pept. Protein Res., 37 (1991), 513-520). The peptides are subsequently assembled, using Fmoc chemistry, either manually or on an automatic ABI model 431 peptide synthesizer. […] The combined filtrate and DCM wash is evaporated azeotropically (or repeatedly extracted by aqueous Na2CO3 solution) to remove the acid used in cleavage. The DCM phase is dried over Na2SO4 and evaporated.
The ester substrates are assembled using standard acid-alcohol coupling procedures (K. Holmber et al, Acta Chem. Scand., B33 (1979) 410-412). Peptide fragments are dissolved in anhydrous pyridine (30-60 mg/ml) to which 10 molar equivalents of chromophore and a catalytic amount (0.1 eq.) of para-toluenesulfonic acid (pTSA) were added. Dicyclohexylcarbodiimide (DCC, 3 eq.) is added to initiate the coupling reactions. […] Pyridine solvent is evaporated under vacuum and further removed by azeotropic evaporation with toluene.

[1] = HCV NS3/NS4A protease, activity class, Table 2A, read-out: Range of Ki*
[2] = HCV NS3/NS4A protease, strain 1a, 30° C., pH 6.5 assay buffer, read-out: Ki*

SMILES | Ki [1] [nM] | Ki [2] [nM] | other results
CC(C)(C)OC(=O)N[C@H](C(=O)N1C[C@@H]2CCC[C@@H]2[C@H]1C(=O)NC(CC1CCC1)C(=O)C(N)=O)C(C)(C)C (stereo partly drawn) [Entry 1] | > 250 | – | –
CC(C)(C)[C@H](NC(=O)N[C@H](CN1C(=O)c2ccccc2C1=O)C(C)(C)C)C(=O)N1C[C@@H]2CCC[C@@H]2[C@H]1C(=O)NC(CC1CCC1)C(=O)C(N)=O (stereo partly drawn) [Entry 1] | – | 13 | –
CC(C)[C@H](NC(=O)N[C@H](C(=O)N1C[C@@H]2CCC[C@@H]2[C@H]1C(=O)NC(CC1CCC1)C(=O)C(N)=O)C(C)(C)C)C(=O)C1CC1 (stereo partly drawn) [Entry 2] | – | 40 | –
CN(C[C@@H](NC(=O)N[C@H](C(=O)N1C[C@@H]2CCC[C@@H]2[C@H]1C(=O)NC(CC1CCC1)C(=O)C(N)=O)C(C)(C)C)C(C)(C)C)S(C)(=O)=O (stereo partly drawn) [Entry 2] | < 75 | – | –
CC(C)(C)[C@H](NC(=O)NC1(CS(=O)(=O)C(C)(C)C)CCCCC1)C(=O)N1C[C@@H]2CCC[C@@H]2[C@H]1C(=O)NC(CC1CCC1)C(=O)C(N)=O (stereo partly drawn) [Entry 3] | – | 30 | –
CC(C)[C@H](NC(=O)N[C@H](C(=O)N1C[C@@H]2CCC[C@@H]2[C@H]1C(=O)NC(CC1CCC1)C(=O)C(N)=O)C(C)(C)C)C(=O)C1CC1 (stereo partly drawn) [Entry 3] | < 75 | – | –
CC(C)(C)[C@H](NC(=O)N[C@H](CN1C(=O)c2ccccc2C1=O)C(C)(C)C)C(=O)N1C[C@@H]2CCC[C@@H]2[C@H]1C(=O)NC(CC1CCC1)C(=O)C(N)=O (stereo partly drawn) [Entry 4] | < 75 | – | –
CN(C[C@@H](NC(=O)N[C@H](C(=O)N1C[C@@H]2CCC[C@@H]2[C@H]1C(=O)NC(CC1CCC1)C(=O)C(N)=O)C(C)(C)C)C(C)(C)C)S(C)(=O)=O (stereo partly drawn) [Entry 4] | – | 15 | –
CC(C)(C)[C@H](NC(=O)NC1(CS(=O)(=O)C(C)(C)C)CCCCC1)C(=O)N1C[C@@H]2CCC[C@@H]2[C@H]1C(=O)NC(CC1CCC1)C(=O)C(N)=O (stereo partly drawn) [Entry 5] | < 75 | – | –
CN(C[C@@H](NC(=O)N[C@H](C(=O)N1C[C@@H]2CCC[C@@H]2[C@H]1C(=O)NC(CC1CCC1)C(=O)C(N)=O)C(C)(C)C)C(C)(C)C)S(=O)(=O)c1cccs1 (stereo partly drawn) [Entry 5] | – | 19 | –
C#CCCC(NC(=O)[C@@H]1[C@H]2CCC[C@H]2CN1C(=O)[C@@H](NC(=O)NC1(CS(=O)(=O)C(C)(C)C)CCCCC1)C(C)(C)C)C(=O)C(=O)NCC=C (stereo partly drawn) [Entry 6] | – | 27 | –
CN(C[C@@H](NC(=O)N[C@H](C(=O)N1C[C@@H]2CCC[C@@H]2[C@H]1C(=O)NC(CC1CCC1)C(=O)C(N)=O)C(C)(C)C)C(C)(C)C)S(=O)(=O)c1cccs1 (stereo partly drawn) [Entry 6] | < 75 | – | –
C#CCCC(NC(=O)[C@@H]1[C@H]2CCC[C@H]2CN1C(=O)[C@@H](NC(=O)[C@@H](NC(=O)c1cnccn1)C1CCCCC1)C(C)(C)C)C(=O)C(=O)NCC=C (stereo partly drawn) [Entry 8] | – | – | Ki: < 75 nM
C#CCCC(NC(=O)[C@@H]1[C@H]2CCC[C@H]2CN1C(=O)[C@@H](NC(=O)NC1(CS(=O)(=O)C(C)(C)C)CCCCC1)C(C)(C)C)C(=O)C(=O)NCC=C (stereo partly drawn) [Entry 9] | < 75 | – | –
CCC[C@H](NC(=O)[C@@H]1[C@H]2CCC[C@H]2CN1C(=O)[C@@H](NC(=O)N[C@H](CN1C(=O)CC(C)(C)CC1=O)C(C)(C)C)C(C)(C)C)C(=O)C(=O)NC1CC1 [Entry 10] | < 75 | – | –
C=CCNC(=O)C(=O)C(CCC)NC(=O)[C@@H]1[C@H]2CCC[C@H]2CN1C(=O)[C@@H](NC(=O)N[C@H](CN1C(=O)CC(C)(C)CC1=O)C(C)(C)C)C(C)(C)C (stereo partly drawn) [Entry 11] | < 75 | – | –
C=CCNC(=O)C(=O)C(CCCC)NC(=O)[C@@H]1[C@H]2CCC[C@H]2CN1C(=O)[C@@H](NC(=O)N[C@H](CN1C(=O)CC(C)(C)CC1=O)C(C)(C)C)C(C)(C)C (stereo partly drawn) [Entry 12] | < 75 | – | –
C=CCNC(=O)C(=O)C(CC1CC1)NC(=O)[C@@H]1[C@H]2CCC[C@H]2CN1C(=O)[C@@H](NC(=O)N[C@H](CN1C(=O)CC(C)(C)CC1=O)C(C)(C)C)C(C)(C)C (stereo partly drawn) [Entry 13] | < 75 | – | –

Reference: patent US7342041B2, “3,4-(cyclopentyl)-fused proline compounds as inhibitors of hepatitis C virus NS3 serine protease” (Schering Corporation, priority 2004, dated 2008)
